Reference: US10076116B2, “N-cycloalkyl-N-(biheterocyclymethylene)-(thio)carboxamide derivatives” (BAYER CROPSCIENCE AKTIENGESELLSCHAFT, priority 2013, dated 2018)
Some results were stated once for a whole list of compounds, not compound by compound.

Experiments:
[1] = system: Botrytis cinerea; assay: In vivo preventive test on Botrytis cinerea (grey mould); conditions: dose of 500 and 100 ppm of active ingredient; gherkin
Experimental: Example B: In Vivo Preventive Test Botrvtis Cinerea (Grey Mould) Solvent: 5% by volume of Dimethyl sulfoxide • 10% by volume of Acetone Emulsifier: 1 μL of TWEEN® 80 per mg of active ingredient The active ingredients are made soluble and homogenized in a mixture of Dimethyl sulfoxide/Acetone/TWEEN® 80 and then diluted in water to the desired concentration. The young plants of gherkin are treated by spraying the active ingredient prepared as described above. Control plants are treated only with an aqueous solution of Acetone/Dimethyl sulfoxide/TWEEN® 80. After 24 hours, the plants are contaminated by spraying the leaves with an aqueous suspension of Botrytis cinerea spores. The contaminated gherkin plants are incubated for 4 to 5 days at 17° C. and at 90% relative humidity. The test is evaluated 4 to 5 days after the inoculation. 0% means an efficacy which corresponds to that of the control plants while an efficacy of 100% means that no disease is observed.

[2] = system: Uromyces appendiculatus; assay: In vivo preventive test on Uromyces appendiculatus (bean rust); conditions: dose of 500 and 100 ppm of active ingredient
Experimental: Example G: In Vivo Preventive Test on Uromvces Appendiculatus (Bean Rust) Solvent: 5% by volume of Dimethyl sulfoxide • 10% by volume of Acetone Emulsifier: 1 μL of TWEEN® 80 per mg of active ingredient The active ingredients are made soluble and homogenized in a mixture of Dimethyl sulfoxide/Acetone/TWEEN® 80 and then diluted in water to the desired concentration. The young plants of bean are treated by spraying the active ingredient prepared as described above. Control plants are treated only with an aqueous solution of Acetone/Dimethyl sulfoxide/TWEEN® 80. After 24 hours, the plants are contaminated by spraying the leaves with an aqueous suspension of Uromyces appendiculatus spores. The contaminated bean plants are incubated for 24 hours at 20° C. and at 100% relative humidity and then for 10 days at 20° C. and at 70-80% relative humidity. The test is evaluated 11 days after the inoculation. 0% means an efficacy which corresponds to that of the control plants while an efficacy of 100% means that no disease is observed.

[3] = system: Alternaria brassicae; assay: In vivo preventive test on Alternaria brassicae (leaf spot on radish); conditions: 500 ppm of active ingredient; radish plants sprayed 24 hours before inoculation; evaluated 6 days after inoculation
Experimental: Example A: In Vivo Preventive Test on Alternaria brassicae (Leaf Spot on Radish) Solvent: 5% by volume of Dimethyl sulfoxide • 10% by volume of Acetone Emulsifier: 1 μL of TWEEN® 80 (Polyoxyethylene (20) sorbitan monooleate) per mg of active ingredient The active ingredients are made soluble and homogenized in a mixture of Dimethyl sulfoxide/Acetone/TWEEN® 80 and then diluted in water to the desired concentration. The young plants of radish are treated by spraying the active ingredient prepared as described above. Control plants are treated only with an aqueous solution of Acetone/Dimethyl sulfoxide/TWEEN® 80. After 24 hours, the plants are contaminated by spraying the leaves with an aqueous suspension of Alternaria brassicae spores. The contaminated radish plants are incubated for 6 days at 20° C. and at 100% relative humidity. The test is evaluated 6 days after the inoculation. 0% means an efficacy which corresponds to that of the control plants while an efficacy of 100% means that no disease is observed.

[4] = system: Puccinia recondita; assay: In vivo preventive test on Puccinia recondita (brown rust on wheat)
Experimental: Example C: In Vivo Preventive Test on Puccinia recondita (Brown Rust on Wheat) […]
The young plants of wheat are treated by spraying the active ingredient prepared as described above. […]
After 24 hours, the plants are contaminated by spraying the leaves with an aqueous suspension of Puccinia recondita spores. The contaminated wheat plants are incubated for 24 hours at 20° C. and at 100% relative humidity and then for 10 days at 20° C. and at 70-80% relative humidity.
The test is evaluated 11 days after the inoculation. 0% means an efficacy which corresponds to that of the control plants while an efficacy of 100% means that no disease is observed.

[5] = dose of 500 and 100 ppm of active ingredient, wheat
[6] = in very similar conditions, dose of 500 ppm, analogues of WO2008/015189

Cn1nc(C(F)F)c(C(=O)N(Cc2ncc(C(F)(F)F)cc2-c2cccs2)C2CC2)c1F [I.19]
protection [1]: at least 35% | protection [2]: at least 60%

Cn1nc(C(F)F)c(C(=O)N(Cc2sc3ccccc3c2-c2cccnc2)C2CC2)c1F [CMP4, N-cyclopropyl-3-(difluoromethyl)-5-fluoro-1-methyl-N-{[3-(pyridin-3-yl)-1-benzothiophen-2-yl]methyl}-1H-pyrazole-4-carboxamide]
efficacy [3]: less than 50%

Cn1nc(C(F)F)c(C(=O)N(Cc2ncc(C(F)(F)F)cc2-c2ccnc3cc(Cl)ccc23)C2CC2)c1F [I.29]
protection [1]: at least 35% | protection [2]: at least 60%

COc1cccc(-c2c(CN(C(=O)c3c(C(F)F)nn(C)c3F)C3CC3)sc3ccccc23)n1 [CMP5, N-cyclopropyl-3-(difluoromethyl)-5-fluoro-N-{[3-(6-methoxypyridin-2-yl)-1-benzothiophen-2-yl]methyl}-1-methyl-1H-pyrazole-4-carboxamide]
efficacy [3]: less than 50%

COc1ccsc1-c1cc(C(F)(F)F)cnc1CN(C(=O)c1c(C(F)F)nn(C)c1F)C1CC1 [I.23]
protection [4, 5]: at least 85%

Cc1cscc1-c1cc(C(F)(F)F)cnc1CN(C(=S)c1c(C(F)F)nn(C)c1F)C1CC1 [I.37]
protection [4, 5]: at least 70%

Cn1nc(C(=O)N(Cc2nc(-c3ccc(Cl)cc3)cs2)C2CC2)c(C(F)(F)F)n1 [50 from WO2008/015189, N-{[4-(4-chlorophenyl)-1,3-thiazol-2-yl]methyl}-N-cyclopropyl-2-methyl-5-(trifluoromethyl)-2H-1,2,3-triazole-4-carboxamide]
protection [4, 6]: less than 20%

Cn1nc(C(F)F)c(C(=O)N(Cc2ncc(C(F)(F)F)cc2-c2cccnc2)C2CC2)c1F [CMP2, N-cyclopropyl-3-(difluoromethyl)-5-fluoro-1-methyl-N-{[5-(trifluoromethyl)-3,3′-bipyridin-2-yl]methyl}-1H-pyrazole-4-carboxamide, reference compound]
protection [2]: less than 20%

Cn1cc(C(=O)N(Cc2ncc(C(F)(F)F)cc2-c2ccsc2)C2CC2)c(C(F)F)n1 [I.41]
protection [4, 5]: at least 70%

Cn1nc(C(F)F)c(C(=O)N(Cc2ncc(C(F)(F)F)cc2-c2ccncc2)C2CC2)c1F [CMP3, N-cyclopropyl-3-(difluoromethyl)-5-fluoro-1-methyl-N-{[5-(trifluoromethyl)-3,4′-bipyridin-2-yl]methyl}-1H-pyrazole-4-carboxamide, reference compound]
protection [2]: less than 20%

Cn1cc(C(=O)N(Cc2nc(-c3ccc(Cl)cc3)cs2)C2CC2)c(C(F)(F)F)n1 [59 from WO2008/015189, N-{[4-(4-chlorophenyl)-1,3-thiazol-2-yl]methyl}-N-cyclopropyl-1-methyl-3-(trifluoromethyl)-1H-pyrazole-4-carboxamide]
protection [4, 6]: less than 20%

Cc1nc(-c2ccc(Cl)cc2)sc1CN(C(=O)c1c(C)nn(C)c1F)C1CC1 [17 from WO2008/015189, N-{[2-(4-chlorophenyl)-4-methyl-1,3-thiazol-5-yl]methyl}-N-cyclopropyl-5-fluoro-1,3-dimethyl-1H-pyrazole-4-carboxamide]
protection [4, 6]: less than 20%

Cc1nn(C)c(F)c1C(=O)N(Cc1nc(-c2ccc(Cl)cc2)cs1)C1CC1 [12 from WO2008/015189, N-{[4-(4-chlorophenyl)-1,3-thiazol-2-yl]methyl}-N-cyclopropyl-5-fluoro-1,3-dimethyl-1H-pyrazole-4-carboxamide]
protection [4, 6]: less than 20%

Cc1ccc(-c2cc(C(F)(F)F)cnc2CN(C(=O)c2c(C(F)F)nn(C)c2F)C2CC2)s1 [I.21]
protection [4, 5]: at least 85%

Cc1nc(-c2ccc(Cl)cc2)sc1CN(C(=O)c1cn(C)nc1C(F)F)C1CC1 [45 from WO2008/015189, N-{[2-(4-chlorophenyl)-4-methyl-1,3-thiazol-5-yl]methyl}-N-cyclopropyl-3-(difluoromethyl)-1-methyl-1H-pyrazole-4-carboxamide]
protection [4, 6]: less than 20%

Cn1nc(C(F)F)c(C(=O)N(Cc2ncc(C(F)(F)F)cc2-c2coc3ccccc23)C2CC2)c1F [I.31]
protection [4, 5]: at least 85% | protection [1]: at least 35% | protection [2]: at least 60%

Cn1cc(C(=O)N(Cc2nc(-c3ccc(Cl)cc3)cs2)C2CC2)c(C(F)(F)F)c1 [28 from WO2008/015189, N-{[4-(4-chlorophenyl)-1,3-thiazol-2-yl]methyl}-N-cyclopropyl-1-methyl-4-(trifluoromethyl)-1H-pyrrole-3-carboxamide]
protection [4, 6]: less than 20%
